Data: PubChem BioAssay AID504466 (National Center for Advancing Translational Sciences (NCATS), 2011)
The campaign covered roughly 330,000 compounds. About 4,200 (1.3%) were called active. The inconclusive results got no clear call from the source; some entries with a clear call stand among them for comparison. The call rests on the fitted dose curve; in most records, active means well fitted activation curve with a large enough effect; inconclusive means small, poorly fitted or top-dose-only effect; inactive means no such curve, though single readings can be large or run the other way. Where the call is inconclusive, the potency comes from a doubtful curve fit.
Potency means the concentration at half of the fitted maximal effect; tags describe the fitted curve by direction and shape.

Assay: qHTS screen for small molecules that induce genotoxicity in human embryonic kidney (HEK293T) cells expressing luciferase-tagged ELG1; further: nearly all actives have a fitted effect of over 60% in size
Details: HEK293T ELG1-luciferase reporter, luminescence, 16 h; series mostly up to 46 µM
How it was run: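 DMSO vehicle served as control against compound-treated ELG1-luciferase HEK293T cells; exposure lasted 16 hr at 37 °C and 5% CO2, followed by ONE-Glo luminescence detection after 30 min.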
With `CC(C)=CCN1CCN(Cc2cnc(N3CCOCC3)s2)CC1CCO` (centres undefined) the Potency was inconclusive: 3.66 µM [activator, full curve].
In the case of `Cc1ccc(NC(=O)Nc2cccc(C)n2)cc1`, the Potency is reported as inconclusive: 10.3 µM [activator, partial curve].
With `Cc1ccc(C(=O)N=c2sccn2C)cc1S(=O)(=O)N1CCOCC1` the Potency was inconclusive: 13 µM [activator, partial curve, poor fit].
For `O=C(CN1CCN(c2ccccn2)CC1)Nc1cccc(F)c1`, the Potency was “inactive”.
For `COCCNC(=O)C(c1ccc(Cl)cc1)N(CCOC)C(=O)CCC(=O)Nc1ccccn1` (centres undefined), the Potency was “inactive”.
With `CCN(CC)S(=O)(=O)c1cccc(C(=O)OCC(=O)Nc2ccc3c(c2)c2ccccc2n3CC)c1` the Potency was inconclusive: 20.6 µM [activator, partial curve, poor fit].
With `COc1ccc(C(=O)Nc2ccc(NC(=O)C3CC3)cn2)cc1` the Potency was “inactive”.
For `Cc1cccc(C(=O)NC(C(=O)Nc2nc(-c3ccccn3)cs2)C(C)C)c1` (centres undefined), the Potency was “inactive”.
In the case of `Cc1ccc(NCC(=O)N/N=C/c2cc3ccccc3nc2Cl)cc1`, the Potency is reported as “inactive”.
With `COCCNc1nc(-c2ccc(OC)cc2)c(-c2ccc(OC)cc2)s1` the Potency was “inactive”.
In the case of `C(=N\Nc1nc2ccccc2[nH]1)/c1cccc2cccnc12`, the Potency is reported as inconclusive: 2.91 µM [activator, full curve].
In the case of `Cc1sc(NC(=O)C2CCCCC2)c(C#N)c1-c1ccccc1`, the Potency is reported as inconclusive: 7.31 µM [activator, partial curve].
With `Cc1nnc(NC(=O)Cn2nc(C)c3ccccc3c2=O)s1` the Potency was “inactive”.
With `O=C(O)c1ccc(N/N=C/c2ccc(-c3cccc(Cl)c3)o2)cc1` the Potency was inconclusive: 2.06 µM [activator, full curve, poor fit].
For `Cc1ccc(/C=N/NC(=O)CSc2nc3ccccc3o2)cc1`, the Potency was inconclusive: 18.4 µM [activator, partial curve, poor fit].
With `Cc1cccc(-c2oc3ccccc3c2-c2ccc3c(c2)OCO3)c1` the Potency was “inactive”.
In the case of `Cc1nn(-c2ccccc2)c2sc(C(=O)C(C#N)c3ccccn3)cc12` (centres undefined), the Potency is reported as “inactive”.
In the case of `Cc1ccc(/C=N/Nc2ccc(F)cc2F)s1`, the Potency is reported as inconclusive: 20.6 µM [activator, partial curve, poor fit].
In the case of `N#CC(=C1CCCC1)c1nc(-c2ccc(Cl)cc2)cs1`, the Potency is reported as inconclusive: 5.17 µM [activator, partial curve, poor fit].
For `NC(=O)c1cc(Cl)ccc1OCC(=O)Nc1ccc2c(c1)OCO2`, the Potency was inconclusive: 2.91 µM [activator, full curve].
For `Cc1ccc(-c2nc(-c3ccccn3)no2)cc1[N+](=O)[O-]`, the Potency was active: 2.06 µM.
With `CN(CCC(=O)Nc1ccc2c(c1)OCO2)Cc1ccccc1` the Potency was “inactive”.
With `Cc1nn(C)c(C(=O)N2CCN(C(=O)c3ccco3)CC2)c1Br` the Potency was “inactive”.
In the case of `[O-]/[N+](=C\c1ccncc1)c1ccc(Br)cc1`, the Potency is reported as inconclusive: 14.6 µM [activator, partial curve].
With `CC1Cc2cc(/C(O)=C3/C(=O)C(=O)N(CCCn4ccnc4)C3c3ccco3)ccc2O1` (centres undefined) the Potency was inconclusive: 18.4 µM [activator, partial curve, poor fit].
With `O=C(NCCc1ccc(F)cc1)c1cc([N+](=O)[O-])ccc1N1CCOCC1` the Potency was “inactive”.
In the case of `CCOC(=O)C1C(=O)OC(C)(C)C1C(C)C(=O)c1ccc(C)cc1` (centres undefined), the Potency is reported as “inactive”.
With `Cc1cc(C)nc(NC(=O)CSc2nc3ccccc3s2)n1` the Potency was active: 5.8 µM.
For `CCN(CC(=O)Nc1c(F)cccc1F)C(=O)/C=C/c1ccc2ccccc2n1`, the Potency was “inactive”.
With `Cc1ccnc(NC(=O)c2ccc([N+](=O)[O-])s2)c1` the Potency was inconclusive: 9.2 µM [activator, partial curve, poor fit].
In the case of `O=C(N/N=C/c1ccccc1[N+](=O)[O-])c1ccc2c(c1)OCCO2`, the Potency is reported as inconclusive: 0.58 µM [activator, full curve].
With `CCOc1ccc2nc(NC(=O)c3cccnc3)sc2c1` the Potency was inconclusive: 10.3 µM [activator, partial curve].
In the case of `Oc1ccc(N=Nc2ccc3c(c2)OCO3)c2ccccc12`, the Potency is reported as active: 5.17 µM.
For `COc1ccc(/C=N/Nc2ccc(C(=O)O)cc2)cc1OC`, the Potency was inconclusive: 1.46 µM [activator, partial curve].
For `Cc1cnc(NC(=O)CCCc2nc3ccccc3s2)s1`, the Potency was “inactive”.
With `Clc1ccccc1-c1nc(-c2ccc(Br)o2)no1` the Potency was active: 4.11 µM.
In the case of `COc1ccc(/C=N/NC(=S)Nc2ccccc2)cc1COc1ccc(F)cc1`, the Potency is reported as inconclusive: 25.9 µM [activator, partial curve, poor fit].
For `c1ccc(Nc2nc(-c3ccncc3)cs2)nc1`, the Potency was active: 1.46 µM.
In the case of `Cc1oc(-c2ccc(-c3ccccc3)cc2)nc1CN(C)C1CCOC1` (centres undefined), the Potency is reported as inconclusive: 2.59 µM [activator, partial curve].
For `COc1ccc(NC(=O)CSc2ccc3c(c2)OCCO3)cc1OC`, the Potency was “inactive”.
For `Cc1ccc2nc(-c3ccc(NC(=O)CCN4C(=O)c5ccccc5C4=O)cc3)sc2c1`, the Potency was active: 1.03 µM.
For `COc1ccc(Br)cc1/C=N/Nc1cccc(C(=O)O)c1`, the Potency was inconclusive: 13 µM [activator, partial curve, poor fit].
In the case of `COc1ccccc1C(=O)NCC1(c2ccccc2)CCCC1`, the Potency is reported as “inactive”.
In the case of `COc1cccc(-c2nc3ccccc3c(=O)o2)c1`, the Potency is reported as inconclusive: 20.6 µM [activator, single point].
In the case of `O=C(CNC(=O)c1ccccc1F)Nc1ccc2c(c1)CCC2`, the Potency is reported as inconclusive: 16.4 µM [activator, partial curve, poor fit].
With `Cc1ccsc1C(=O)OCc1nnc(-c2ccccc2)o1` the Potency was inconclusive: 23.1 µM [activator, partial curve, poor fit].
For `Cc1ccc(NC(=O)c2oc3ccccc3c2C)nc1`, the Potency was inconclusive: 5.8 µM [activator, full curve].
For `CNC(=O)c1ccc(-c2ccccc2)s1`, the Potency was inconclusive: 20.6 µM [activator, partial curve, poor fit].
In the case of `COCCN(Cc1cc2cc3c(cc2nc1Cl)OCO3)C(=O)Nc1ccc(F)cc1`, the Potency is reported as inconclusive: 18.4 µM [activator, partial curve, poor fit].
With `CC1=C(c2ccc(C)cc2)[N+](=O)C(C)(C)N1[O-]` the Potency was inconclusive: 23.1 µM [activator, partial curve].
With `Cc1ccc(S(=O)(=O)Nc2ccc(S(=O)(=O)Nc3nccs3)cc2)c([N+](=O)[O-])c1` the Potency was “inactive”.
In the case of `CC1CN(C2=NC(=O)/C(=C3/C(=O)N(Cc4ccc(F)cc4)c4ccccc43)S2)CC(C)O1` (centres undefined), the Potency is reported as “inactive”.
With `COC(=O)c1nn(-c2ccc3c(c2)OCO3)cc1O` the Potency was inconclusive: 9.2 µM [activator, partial curve].
With `Nc1n[nH]c(N)c1N=Nc1ccc(Cl)cc1` the Potency was inconclusive: 18.4 µM [activator, partial curve, poor fit].
With `CC1CCC2(CC1)NC(=O)N(CC(=O)NC1CCCCC1C)C2=O` (centres undefined) the Potency was “inactive”.
For `Cc1ccc(N=Nc2ccc(O)c(/C=N\NC(=O)c3ccc(N)cc3)c2)cc1C`, the Potency was inconclusive: 11.6 µM [activator, partial curve].
For `O=C(NC1CCCCCC1)c1cccs1`, the Potency was “inactive”.
With `Cc1ccccc1NC(=S)c1ccc2ccccc2n1` the Potency was inconclusive: 16.4 µM [activator, partial curve, poor fit].
For `CCOc1cc(NC(=S)NCCCN2CCOCC2)c(OCC)cc1NC(=O)c1cccc(F)c1`, the Potency was inconclusive: 29.1 µM [activator, single point].
For `COc1ccc(/C=N/NC(=O)c2[nH]c(C)c(C(=O)N/N=C/c3ccc(OC)cc3)c2C)cc1`, the Potency was “inactive”.
With `Cc1ccc2nc(NC(=S)NC(=O)c3cccs3)sc2c1` the Potency was inconclusive: 2.06 µM [activator, full curve].
With `O=C(Nc1ccc(NC(=O)c2cccs2)cc1)c1ccc(Br)o1` the Potency was inconclusive: 8.2 µM [activator, partial curve, poor fit].
For `Cc1cc(NC(=O)COc2ccc(C)c(C)c2)no1`, the Potency was inconclusive: 16.4 µM [activator, partial curve].
With `O=C(CN1CCCCCC1)Nc1ccc(Br)cc1Br` the Potency was inconclusive: 18.4 µM [activator, partial curve].
With `CN(C)c1cccc(C(=O)N/N=C/c2ccsc2)c1` the Potency was inconclusive: 18.4 µM [activator, partial curve].
In the case of `Cc1ccc(NC(=O)/C(C#N)=C(\N)C(Cl)(Cl)Cl)nc1`, the Potency is reported as inconclusive: 29.1 µM [activator, single point].
In the case of `Fc1ccc(-c2nc3n(n2)Cc2ccccc2-3)cc1`, the Potency is reported as active: 0.411 µM.
For `CCCS(=O)(=O)n1nc(-c2ccccc2)cc1N`, the Potency was inconclusive: 18.4 µM [activator, partial curve, poor fit].
For `COC1=CC(=O)C[C@@H](C)[C@]12Oc1c(Cl)c(OC)cc(OC)c1C2=O`, the Potency was inconclusive: 20.6 µM [activator, partial curve, poor fit].
For `CC(=O)Oc1ccc2c(=O)c(-c3nc4ccccc4s3)coc2c1`, the Potency was inconclusive: 1.16 µM [activator, full curve, poor fit].
For `COc1ccccc1OCCSc1nc2ccccc2c(=O)[nH]1`, the Potency was inconclusive: 20.6 µM [activator, single point].
In the case of `O=C(Cn1cc(SCc2ccc(Cl)cc2)c2ccccc21)N1CCOCC1`, the Potency is reported as “inactive”.
In the case of `CN(C)c1ccc(Nc2ccc([N+](=O)[O-])cn2)cc1`, the Potency is reported as inconclusive: 18.3 µM [activator, partial curve].
In the case of `O=C(O)c1ccc(COc2ccc(CO)cc2Cl)cc1`, the Potency is reported as active: 9.2 µM.
